Source: patent US8415310B2, “Isoxazoline derivatives as antiparasitic agents” (AH USA 42 LLC, priority 2010, dated 2013)
Some of these results come from one statement about several compounds together.

What was measured:
[1] = tested on: Ctenocephalides felis; experiment: Flea (Ctenocephalides felis) Membrane Feed Assay-Adult; type: in vivo; conditions: adult fleas fed on treated citrated bovine blood approximately 2 hours; knockdown and/or death at approximately 2 and 24 hours
Protocol: Flea (Ctenocephalides felis) Membrane Feed Assay-Adult
Comparative Data: Flea Feed Assay
Comparator compounds T1 and T2 were tested in the flea feed assay, as described above, and are compared to Examples 39 and 43, respectively. The compounds T1 (WO2008/122375) and T2 (US2009/0156643) represent the closet exemplified art. The data represents the 24 hour time period. Endpoint data were recorded as an lethal dose 90% (LD^90) in μg/mL. […] Comparator compounds T1 and T2 both had LD^90 values of >30 […].

[2] = tested on: fleas, ticks, flies, and or sea lice; experiment: at least one of the bio-assays (summary statement); type: in vivo; conditions: assay not specified

Which “lethal dose 90% (LD^90)” value [1] does the source give for CCC(=O)N1CC(F)(c2ccc(C3=NOC(c4ccc(Cl)c(Cl)c4)(C(F)(F)F)C3)cc2)C1 (centres unmarked) [Example 168, 5-(3,4-dichlorophenyl)-3-[4-(3-fluoro-1-propionylazetidin-3-yl)phenyl]-5-(trifluoromethyl)-4,5-dihydroisoxazole] here?
The value was at most 0.3 µg/mL.

With O=C(C1CC1)N1CC(F)(c2ccc(C3=NOC(c4cccc(Cl)c4)(C(F)(F)F)C3)cc2)C1 (centres unmarked) [Example 156, 5-(3-chlorophenyl)-3-{4-[1-(cyclopropylcarbonyl)-3-fluoroazetidin-3-yl]phenyl}-5-(trifluoromethyl)-4,5-dihydroisoxazole] as the molecule, how does the “lethal dose 90% (LD^90)” value [1] read?
Its value is at most 3 µg/mL.

With O=C(C1CC1)N1CC(F)(c2ccc(C3=NOC(c4ccc(F)c(F)c4)(C(F)(F)F)C3)cc2)C1 (centres unmarked) [Example 171, 3-{4-[1-(cyclopropylcarbonyl)-3-fluoroazetidin-3-yl]phenyl}-5-(3,4-difluorophenyl)-5-(trifluoromethyl)-4,5-dihydroisoxazole] as the molecule, how does the “lethal dose 90% (LD^90)” value [1] read?
The value was at most 3 µg/mL.

What about the “ED^100, LD^100, LD^90, and/or ED^80 value within at least one of the bio-assays” value [2] of the same molecule?
The value was at most 0.03 µg/mL.

For CCC(=O)N1CC(F)(c2ccc(C3=NOC(c4cccc(F)c4)(C(F)(F)F)C3)cc2)C1 (centres unmarked) [Example 166, 5-(3-fluorophenyl)-3-[4-(3-fluoro-1-propionylazetidin-3-yl)phenyl]-5-(trifluoromethyl)-4,5-dihydroisoxazole], which “lethal dose 90% (LD^90)” value [1] is on record?
The value was at most 3 µg/mL.

For O=C(C1CC1)N1CC(O)(c2ccc(C3=NOC(c4cc(F)c(F)c(Cl)c4)(C(F)(F)F)C3)cc2)C1 (centres unmarked) [Example 157, 3-{4-[5-(3-chloro-4,5-difluorophenyl)-5-(trifluoromethyl)-4,5-dihydroisoxazol-3-yl]phenyl}-1-(cyclopropylcarbonyl)-azetidin-3-ol], which “lethal dose 90% (LD^90)” value [1] is on record?
Its value is at most 3 µg/mL.

With CCC(=O)N1CC(F)(c2ccc(C3=NOC(c4cccc(Cl)c4)(C(F)(F)F)C3)cc2)C1 (centres unmarked) [Example 167, 5-(3-chlorophenyl)-3-[4-(3-fluoro-1-propionylazetidin-3-yl)phenyl]-5-(trifluoromethyl)-4,5-dihydroisoxazole] as the molecule, how does the “lethal dose 90% (LD^90)” value [1] read?
Its value is at most 0.3 µg/mL.

For O=C(C1CC1)N1CC(F)(c2ccc(C3=NOC(c4cc(F)c(F)c(C(F)(F)F)c4)(C(F)(F)F)C3)cc2)C1 (centres unmarked) [Example 158, 3-{4-[1-(cyclopropylcarbonyl)-3-fluoroazetidin-3-yl]phenyl}-5-[3,4-difluoro-5-(trifluoromethyl)phenyl]-5-(trifluoromethyl)-4,5-dihydroisoxazole], which “lethal dose 90% (LD^90)” value [1] is on record?
Its value is at most 1 µg/mL.

With O=C(C1CC1)N1CC(F)(c2ccc(C3=NOC(c4cc(F)cc(Cl)c4)(C(F)(F)F)C3)cc2)C1 (centres unmarked) [Example 170, 5-(3-chloro-5-fluorophenyl)-3-{4-[1-(cyclopropylcarbonyl)-3-fluoroazetidin-3-yl]phenyl}-5-(trifluoromethyl)-4,5-dihydroisoxazole] as the molecule, how does the “lethal dose 90% (LD^90)” value [1] read?
The value was at most 1 µg/mL.

What does the source list for O=C(C1CC1)N1CC(F)(c2ccc(C3=NOC(c4cccc(C(F)(F)F)c4)(C(F)(F)F)C3)cc2)C1 (centres unmarked) [Example 169, 3-{4-[1-(cyclopropylcarbonyl)-3-fluoroazetidin-3-yl]phenyl}-5-(trifluoromethyl)-5-[3-(trifluoromethyl)phenyl]-4,5-dihydroisoxazole]?
lethal dose 90% (LD^90) [1]: ≤ 0.3 µg/mL; ED^100, LD^100, LD^90, and/or ED^80 value within at least one of the bio-assays [2]: ≤ 0.003 µg/mL
